# According to PubChem BioAssay AID504832 (National Center for Advancing Translational Sciences (NCATS), 2011):
# Screen size: about 310,000 compounds; about 18,000 (5.8%) were called active. The shares of active, inactive and inconclusive entries below differ from those in the screen. Calls come from the whole dose curve; as a rule, active = well fitted inhibition curve with a large enough effect; inconclusive = small, poorly fitted or top-dose-only effect, or another doubt; inactive = no such curve, though single readings can be large or run the other way. No potency is given beside an inconclusive call; the fits are too rough.
# Experiment: Primary qHTS for delayed death inhibitors of the malarial parasite plastid, 48 hour incubation
# Settings: P. falciparum luciferase growth in erythrocytes; series mostly up to 28.7 µM; activity change, negative = inhibition: at the top concentration
# How it was run: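 Luminescence readout; reporter = integrated firefly luciferase in P. falciparum. RBC culture at 2% hematocrit, 0.1% parasitemia final, 37 C/5% CO2; decreased signal taken as growth inhibition.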
# % is set by controls: 0 for no effect and ±100 for the full control effect; potency is the fitted concentration of half-maximal effect; tags give direction and shape of the fitted curve.
Structure (SMILES),"activity change, negative = inhibition",Potency
CC(C)(C)c1ccc(-c2noc(CCC(=O)N3CCOCC3)n2)cc1,inactive: 452%,–
O=C(CSCc1ccccc1Br)N/N=C/c1ccccc1C(=O)O,inactive: -7.74%,–
CC(/C=C/c1cccc([N+](=O)[O-])c1)=N/NC(=O)c1cccnc1,inactive: -3.78%,–
O=C(CSc1nc2ccccc2[nH]1)NC1CCCc2ccccc21 (configuration not stated),inactive: 2.71%,–
N=c1c(-c2nc3ccccc3[nH]2)cc(C(=O)c2cccs2)nn1-c1ccccc1,–,"inconclusive [inhibitor, partial curve, poor fit]"
Cc1ccc(S(=O)(=O)N2CCCCC2)cc1NC(=O)C1CC(=O)N(Cc2ccco2)C1 (configuration not stated),–,"inconclusive [inhibitor, partial curve, poor fit]"
COc1ccc(C(=O)Nc2ccnn2C2CCN(C(=O)C3CCOC3)CC2)cc1 (configuration not stated),inactive: 34.2%,–
Cc1c(CCOC(=O)C23CC4CC(CC(C)(C4)C2)C3)sc[n+]1Cc1ccccc1,–,active: 3.29 µM
COc1ccc(S(=O)(=O)NCCCn2ccnc2)cc1C(C)(C)C,–,"inconclusive [inhibitor, partial curve]"
CCN(CC(=O)Nc1c(F)cccc1F)C(=O)C1CCN(S(=O)(=O)c2ccc(C)c(C)c2)CC1,–,"inconclusive [inhibitor, single point]"
C=CCNC(=O)C(=O)Nc1ccc2c(c1)N(S(=O)(=O)c1cccs1)CCC2,–,"inconclusive [inhibitor, single point]"
COCCN1CC(C(=O)NCc2ncccc2C)CCC1=O (configuration not stated),inactive: 18.1%,–
CCN(CC)c1ccc(S(=O)(=O)N2CCOCC2)cc1NC(=O)Cn1nc(C)c([N+](=O)[O-])c1C,–,"inconclusive [inhibitor, single point]"
Cc1nn(CCCC(=O)NCCc2ccc(Cl)cc2)c(=O)c2nn(-c3ccccc3)c(C)c12,inactive: -13.5%,–
O=C1C2C(c3cccc(/C=C/c4ccccc4)c3)CC=CC2C(c2ccc(C(F)(F)F)cc2)N1Cc1ccccc1 (configuration not stated),–,active: 11.7 µM
O=C(N/N=C\c1c(O)ccc2ccccc12)c1ccc(O)cc1,–,"inconclusive [inhibitor, single point]"
CCOc1ccc(C2NC(=S)NC3=C2CCc2ccccc23)cc1 (configuration not stated),–,"inconclusive [inhibitor, partial curve, poor fit]"
CCCCC1C2C(=O)N(c3ccc(C)cc3)C(=O)C2ON1c1ccccc1 (configuration not stated),inactive: 39.4%,–
CCc1ccc(C(=O)COC(=O)c2cccnc2Cl)cc1,inactive: 38.8%,–
COc1cccc(NC(=O)COc2ccc(C)cc2)c1,inactive: 187%,–
CC(Oc1cc(Cl)ccc1Cl)C(=O)N/N=C\c1ccnn1C (configuration not stated),inactive: -10.1%,–
CC1CN(C(=O)c2cc(-c3ccc(Cl)s3)nc3ccccc23)CC(C)O1 (configuration not stated),–,"inconclusive [inhibitor, single point]"
c1ccc(SCCN2CCN(c3ccccc3)CC2)cc1,inactive: 29.4%,–
N#CCN1C(=O)C2CCCN2c2ccc(S(=O)(=O)N3CCOCC3)cc21 (configuration not stated),–,"inconclusive [inhibitor, single point]"

Structure (SMILES),"activity change, negative = inhibition",Potency
CCCCOC(=O)Nc1nc2ccc([N+](=O)[O-])cc2s1,–,"inconclusive [inhibitor, partial curve]"
COc1ccc(C(CNC(=O)C(C)Oc2ccc(Br)cc2)N2CCOCC2)cc1 (configuration not stated),–,"inconclusive [inhibitor, single point]"
CCN(CC)CCOC(=O)c1ccc(N)cc1,–,inactive
Cc1cc(C)cc(NC(=O)c2ccccc2CC[N+](=O)[O-])c1,–,"inconclusive [inhibitor, single point]"
C=CCn1c(SCc2ccc(C#N)cc2)nnc1-c1ccc(C)cc1,–,"inconclusive [inhibitor, single point]"
COCCOC(=O)/C(C#N)=C/c1cn(Cc2ccccc2)nc1-c1cccnc1,inactive: 3.17%,–
Cn1c(=O)c2c(nc(NC(Cc3ccccc3)C(=O)O)n2Cc2ccccc2)n(C)c1=O (configuration not stated),–,active: 6.57 µM
COC(=O)c1c(NC(=O)c2ccco2)sc2c1CCN(C(C)=O)C2,–,"inconclusive [inhibitor, single point]"
CC1=C(C(=O)Nc2cccc(C(=O)N3CCN(c4cccc(C(F)(F)F)c4)CC3)c2)SCCO1,–,"inconclusive [inhibitor, single point]"
Cn1c(N)c(C(=O)COC(=O)/C=C/c2cccc(F)c2)c(=O)n(C)c1=O,–,active: 11.7 µM
COc1ccccc1N1CCN(CC(C)N(C(=O)C2CCCCC2)c2ccccn2)CC1 (configuration not stated),–,"inconclusive [inhibitor, single point]"
CN(C)C(CNc1ccc(C(F)(F)F)cc1[N+](=O)[O-])c1ccccc1 (configuration not stated),–,"inconclusive [inhibitor, partial curve, poor fit]"
Cc1c(NC(=O)CNCc2ccc3c(c2)OCO3)c(=O)n(-c2ccccc2)n1C,inactive: 4.24%,–
O=C(NCCc1c[nH]c2ccccc12)c1ccco1,inactive: 27.7%,–
CCOC(=O)N1CCN(C(=O)c2ccc3nc(SCc4ccc(F)cc4)n(C)c3c2)CC1,–,"inconclusive [inhibitor, single point]"
Cc1ccc2cc(CN(CCc3ccccc3)C(=S)NCCCN(C)C)c(=O)[nH]c2c1,–,"inconclusive [inhibitor, single point]"
CS(=O)(=O)N(Cc1cccc(CN(C(C(=O)O)c2ccccc2)S(C)(=O)=O)c1)C(C(=O)O)c1ccccc1 (configuration not stated),inactive: 16.2%,–
COCCN1C=C2C(=O)C(C)(OC(=O)C3CCCC3)C(=O)C=C2C=C1c1ccsc1 (configuration not stated),inactive: 33.1%,–
O=C(COC(=O)c1cccc(S(=O)(=O)N2CCc3ccccc32)c1)NCc1ccco1,inactive: 2.6%,–
CCN1CCN(c2nc(Nc3ccc(NC(C)=O)cc3)nc(Nc3ccc(NC(C)=O)cc3)n2)CC1,–,"inconclusive [inhibitor, partial curve]"
COc1cccc(N2CC(C(=O)Nc3nnc(SCC(=O)Nc4ccc(NC(C)=O)cc4)s3)CC2=O)c1 (configuration not stated),inactive: -0.163%,–
O=C(Nc1nc(-c2ccccn2)cs1)c1ccc(F)c(S(=O)(=O)N2CCOCC2)c1,–,active: 1.47 µM
CC(=O)Nc1ccc(CN2CCCCCCC2)cc1,–,"inconclusive [inhibitor, single point]"
C#Cc1ccc([C@H]2C=C(C(=O)N3CCN(Cc4ccc5c(c4)OCO5)CC3)O[C@@H](OCC)[C@@H]2CCCO)cc1,–,active: 4.15 µM

Structure (SMILES),"activity change, negative = inhibition",Potency
CCOc1ccc(C(C)=O)cc1COC(=O)CNC(=O)c1cccs1,–,"inconclusive [inhibitor, partial curve, poor fit]"
COc1cc([N+](=O)[O-])ccc1NC(=S)NNC(=O)c1ccc2c(c1)OCO2,inactive: 35.8%,–
C=CCn1c(SCn2nnc3ccccc3c2=O)nnc1-c1ccc(Br)cc1,inactive: 0.337%,–
Cc1ccc(S(=O)(=O)Oc2ccc(C(c3c(C)[nH][nH]c3=O)c3c(C)[nH][nH]c3=O)cc2)cc1,–,"inconclusive [inhibitor, single point]"
COc1ccc(C(=O)COC(=O)c2ccc(Cl)nc2)cc1OC,–,"inconclusive [inhibitor, single point]"
COc1cc(C(=O)OCC(=O)Nc2cc(S(=O)(=O)N3CCOCC3)ccc2C)ccc1OCC(C)C,–,"inconclusive [inhibitor, single point]"
CCCCn1c(=N)n(CC(=O)C(C)(C)C)c2ccccc21,–,"inconclusive [inhibitor, single point]"
O=c1c(O)c(-c2ccc3c(c2)OCO3)oc2ccccc12,–,"inconclusive [inhibitor, partial curve]"
COc1ccc(C)cc1NC(=O)C1CCN(S(=O)(=O)c2cccc3cccnc23)CC1,–,"inconclusive [inhibitor, single point]"
CCN1c2ccccc2S(=O)(=O)c2ccccc21,–,"inconclusive [inhibitor, partial curve, poor fit]"
Cc1cc(C)c2oc(=O)cc(CN3CCN(Cc4ccccc4)CC3)c2c1,–,active: 11.7 µM
CC(C)(C)OC(=O)N1CCC(CNC(=O)c2cccs2)CC1,inactive: -4.97%,–
COc1ccccc1CN(C(=O)Cc1cccs1)C(C(=O)NC1CCCC1)c1ccncc1 (configuration not stated),–,"inconclusive [inhibitor, single point]"
CCN(CC)CCNc1nc(-n2nc(C)cc2C)nc2sc3c(c12)CC(C)(C)OC3,–,"inconclusive [inhibitor, single point]"
COc1ccc(CCC(=O)Nc2ncc(C)s2)cc1OC,–,"inconclusive [inhibitor, single point]"
Cc1ccc(N2C(=O)CC(Sc3ncn[nH]3)C2=O)cc1C (configuration not stated),inactive: 3.28%,–
COc1ccc(CCC(=O)Nc2nc(-c3ccncc3)cs2)cc1,–,"inconclusive [inhibitor, single point]"
Cc1ccc2cc(CN(CC3CCCO3)C(=O)c3cccs3)c(=O)[nH]c2c1 (configuration not stated),inactive: -11%,–
Cc1cnc(NC(=O)Cc2ccccc2Cl)s1,inactive: -9.24%,–
Cc1cc2oc(C(=O)N(Cc3ccc(N(C)C)cc3)CC3CCCO3)c(C)c2cc1C (configuration not stated),–,"inconclusive [inhibitor, single point]"
O=C1CC(C(=O)N2CCN(Cc3ccccc3)CC2)CN1Cc1ccccc1 (configuration not stated),–,"inconclusive [inhibitor, single point]"
Cc1ccccc1CS(=O)(=O)Cc1ccc(C(=O)NCc2cccnc2)o1,inactive: 21.6%,–
Cc1cc(Nc2ccc(Br)c(C)c2)n2nc(C)nc2n1,–,active: 0.262 µM
O=c1cc[nH]c2cccc(Cc3ccccc3)c12,–,"inconclusive [inhibitor, partial curve, poor fit]"
